Data published in patent publication US3974140A, “Ureidoacetamido-penicillins” (Bayer Aktiengesellschaft, priority 1970, dated 1976).
At least one read-out could not be matched to a standard name with certainty.

Legend:
Experiment in all cases: Surviving mice after intraperitoneal infection and subcutaneous therapy
Assay type in all cases: in vivo, white mice, CF1 strain
E. coli C 165 = system: E. coli C 165
Klebsiella 63 = system: Klebsiella 63
Proteus vulg. 1017 = system: Proteus vulg. 1017
Psdm. aerug. Walter = system: Psdm. aerug. Walter
Method: The experiments on animals (see Table 3) were carried out with white mice of the CF1 strain. The infection took place intraperitoneally with the particular bacterium indicated.

[1] = E. coli C 165, 2 × 3000 units/mouse s.c., 30 and 90 min after infection, 1 day
[2] = E. coli C 165, 2 × 3000 units/mouse s.c., 2 days
[3] = E. coli C 165, 2 × 3000 units/mouse s.c., 3 days
[4] = E. coli C 165, 2 × 3000 units/mouse s.c., 5 days
[5] = Klebsiella 63, 2 × 3000 units/mouse s.c., 1 day
[6] = Klebsiella 63, 2 × 3000 units/mouse s.c., 2 days
[7] = Klebsiella 63, 2 × 3000 units/mouse s.c., 3 days
[8] = Proteus vulg., 2 × 3000 units/mouse s.c., 1 day
[9] = Proteus vulg., 2 × 3000 units/mouse s.c., 2 days
[10] = Proteus vulg., 2 × 3000 units/mouse s.c., 3 days
[11] = Proteus vulg., 2 × 3000 units/mouse s.c., 5 days
[12] = Dose A = 37,500 units/kg, 30 and 90 min after infection, 1st day

SMILES: CN(C(=O)N[C@@H](C(=O)N[C@@H]1C(=O)N2[C@@H]1SC(C)(C)[C@@H]2C(=O)O)c1ccccc1)C(=O)C1CC=CCC1 (single isomer, unassigned) [Example 65, Sodium D(-)-α-(3-(1,2,5,6)-tetrahydrobenzoyl-3-methyl-ureido)benzylpenicillin]
- Number of surviving mice (E. coli C 165; [1]): 90%
- Number of surviving mice (E. coli C 165; [2]): 60%
- Number of surviving mice (E. coli C 165; [3]): 60%
- Number of surviving mice (E. coli C 165; [4]): 60%
- Number of surviving mice (Klebsiella 63; [5]): 100%
- Number of surviving mice (Klebsiella 63; [6]): 100%
- Number of surviving mice (Klebsiella 63; [7]): 10%
- Number of surviving mice (Proteus vulg. 1017; [8]): 100%
- Number of surviving mice (Proteus vulg. 1017; [9]): 100%
- Number of surviving mice (Proteus vulg. 1017; [10]): 100%
- Number of surviving mice (Proteus vulg. 1017; [11]): 100%

SMILES: CC1(C)S[C@@H]2[C@H](NC(=O)C(C(=O)O)c3ccccc3)C(=O)N2[C@H]1C(=O)O (some centres unmarked) [Carbenicillin, reference compound]
- Number of surviving mice (E. coli C 165; [12]): 70%
- Number of surviving mice (E. coli C 165; Dose A = 37,500 units/kg, 2nd day): 50%
- Number of surviving mice (E. coli C 165; Dose A = 37,500 units/kg, 3rd day): 50%
- Number of surviving mice (E. coli C 165; Dose A = 37,500 units/kg, 5th day): 50%
- Number of surviving mice (Psdm. aerug. Walter; Dose D = 150,000 units/kg, 0.5, 2, 4 and 6 hours after infection, 1st day): 80%
- Number of surviving mice (Psdm. aerug. Walter; Dose D = 150,000 units/kg, 2nd day): 20%
- Number of surviving mice (Psdm. aerug. Walter; Dose D = 150,000 units/kg, 3rd day): 20%
- Number of surviving mice (Psdm. aerug. Walter; Dose D = 150,000 units/kg, 5th day): 20%
- Number of surviving mice (Klebsiella 63; [12]): 0%
- Number of surviving mice (Klebsiella 63; Dose B = 75,000 units/kg, 30 and 90 min after infection, 1st day): 0%
- Number of surviving mice (Klebsiella 63; Dose C = 150,000 units/kg, 30 and 90 min, 1st day): 0%
- Number of surviving mice (Klebsiella 63; [5]): 0%
- Number of surviving mice (Klebsiella 63; [6]): 0%
- Number of surviving mice (Klebsiella 63; [7]): 0%
- Number of surviving mice (Klebsiella 63; Klebsiella 63, 2 × 3000 units/mouse s.c., 5 days): 0%
- Number of surviving mice (Proteus vulg. 1017; Prot. vulg. 1017, Dose A = 37,500 units/kg, 30 and 90 min after infection, 1st day): 50%
- Number of surviving mice (Proteus vulg. 1017; Prot. vulg. 1017, Dose A = 37,500 units/kg, 2nd day): 50%
- Number of surviving mice (Proteus vulg. 1017; Prot. vulg. 1017, Dose A = 37,500 units/kg, 3rd day): 50%
- Number of surviving mice (Proteus vulg. 1017; Prot. vulg. 1017, Dose A = 37,500 units/kg, 5th day): 50%
- Number of surviving mice (Proteus vulg. 1017; [8]): 100%
- Number of surviving mice (Proteus vulg. 1017; [9]): 100%
- Number of surviving mice (Proteus vulg. 1017; [10]): 100%
- Number of surviving mice (Proteus vulg. 1017; [11]): 100%

SMILES: CN(C(=O)N[C@@H](C(=O)N[C@@H]1C(=O)N2[C@@H]1SC(C)(C)[C@@H]2C(=O)O)c1ccccc1)C(=O)c1ccccc1 [Example 59, Sodium D(-)-α-(3-benzoyl-3-methyl-ureido)-benzylpenicillin]
- Number of surviving mice (E. coli C 165; [1]): 70%
- Number of surviving mice (E. coli C 165; [2]): 60%
- Number of surviving mice (E. coli C 165; [3]): 60%
- Number of surviving mice (E. coli C 165; [4]): 60%
- Number of surviving mice (Klebsiella 63; [5]): 100%
- Number of surviving mice (Klebsiella 63; [6]): 90%
- Number of surviving mice (Klebsiella 63; [7]): 30%
- Number of surviving mice (Proteus vulg. 1017; [8]): 100%
- Number of surviving mice (Proteus vulg. 1017; [9]): 100%
- Number of surviving mice (Proteus vulg. 1017; [10]): 100%
- Number of surviving mice (Proteus vulg. 1017; [11]): 100%

SMILES: CN(C(=O)N[C@@H](C(=O)N[C@@H]1C(=O)N2[C@@H]1SC(C)(C)[C@@H]2C(=O)O)c1ccccc1)C(=O)C1CCCCC1 [Example 62]
- Number of surviving mice (E. coli C 165; [1]): 80%
- Number of surviving mice (E. coli C 165; [2]): 70%
- Number of surviving mice (Klebsiella 63; [5]): 100%
- Number of surviving mice (Klebsiella 63; [6]): 100%
- Number of surviving mice (Klebsiella 63; [7]): 40%
- Number of surviving mice (Proteus vulg. 1017; [8]): 70%
- Number of surviving mice (Proteus vulg. 1017; [9]): 50%
- Number of surviving mice (Proteus vulg. 1017; [10]): 50%
- Number of surviving mice (Proteus vulg. 1017; [11]): 50%

SMILES: CN(C(=O)C=Cc1ccccc1)C(=O)N[C@@H](C(=O)N[C@@H]1C(=O)N2[C@@H]1SC(C)(C)[C@@H]2C(=O)O)c1ccccc1 [Example 63, Sodium D(-)-α-(3-cinnamoyl-3-methyl-ureido)-benzylpenicillin]
- Number of surviving mice (E. coli C 165; [1]): 80%
- Number of surviving mice (E. coli C 165; [2]): 60%
- Number of surviving mice (E. coli C 165; [3]): 60%
- Number of surviving mice (E. coli C 165; [4]): 60%
- Number of surviving mice (Klebsiella 63; [5]): 100%
- Number of surviving mice (Klebsiella 63; [6]): 100%
- Number of surviving mice (Klebsiella 63; [7]): 30%
- Number of surviving mice (Proteus vulg. 1017; [8]): 80%
- Number of surviving mice (Proteus vulg. 1017; [9]): 70%
- Number of surviving mice (Proteus vulg. 1017; [10]): 70%
- Number of surviving mice (Proteus vulg. 1017; [11]): 70%

SMILES: CC(=O)N(C)C(=O)N[C@@H](C(=O)N[C@@H]1C(=O)N2[C@@H]1SC(C)(C)[C@@H]2C(=O)O)c1ccccc1 [Example 66A, Sodium D(-)-α-(3-acetyl-3-methyl-ureido)-benzylpenicillin]
- Number of surviving mice (E. coli C 165; [1]): 100%
- Number of surviving mice (E. coli C 165; [2]): 60%
- Number of surviving mice (E. coli C 165; [3]): 50%
- Number of surviving mice (E. coli C 165; [4]): 50%
- Number of surviving mice (Psdm. aerug. Walter; Psdm. aerug. Walter, 4 × 3000 units/mouse s.c., 1 day): 30%
- Number of surviving mice (Klebsiella 63; [5]): 90%
- Number of surviving mice (Klebsiella 63; [6]): 90%
- Number of surviving mice (Klebsiella 63; [7]): 0%
- Number of surviving mice (Proteus vulg. 1017; [8]): 100%
- Number of surviving mice (Proteus vulg. 1017; [9]): 100%
- Number of surviving mice (Proteus vulg. 1017; [10]): 100%
- Number of surviving mice (Proteus vulg. 1017; [11]): 100%
